Test results reported in the supplement of paper PMC3724861.
The list shows a part of the results.

system: T1, Caupolican (Caup) homeodomain DNA-binding domain; assay: PBM E-score (8-mer, recovered from the published 9-mer minima) (E-score (dimensionless, -0.5 to 0.5)); Drosophila protein; higher = stronger relative binding preference, active = 0.31 or more
T1 sequence: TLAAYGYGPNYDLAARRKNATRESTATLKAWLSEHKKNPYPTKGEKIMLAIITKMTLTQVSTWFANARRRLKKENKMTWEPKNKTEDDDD
Outline: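 An enrichment score, with higher meaning stronger, expresses relative binding preference for each short DNA word. The protein used was Caup's homeodomain DNA-binding domain (residues 214-303), produced by in vitro transcription and translation and tested at 100 nM on custom-designed protein binding microarrays. The 8-mer values were recovered from published 9-mer scores, each equal to the lower of its two constituent 8-mer scores.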

Row | Sequence | PBM E-score
1 | AACGGGGC | inactive: -0.174
2 | AAGGAAAG | inactive: -0.0839
3 | CCCTTATA | inactive: -0.0258
4 | CATGCTGC | inactive: 0.0174
5 | CTGATAGA | inactive: 0.119
6 | GATTGATA | inactive: 0.143
7 | AAAGACCT | inactive: -0.0628
8 | AGATTCGA | inactive: -0.0196
9 | AGTAGCCA | inactive: -0.103
10 | ATTTTCTC | inactive: -0.0295
11 | GGCATGCC | inactive: -0.0909
12 | TTATTAAA | inactive: 0.178
13 | CTCATGCA | inactive: 0.042
14 | GCTCAAAA | inactive: -0.0258
15 | ACTTGGGA | inactive: -0.159
16 | AATTCAAG | inactive: 0.118
17 | GTCGACTA | inactive: 0.0996
18 | CTTGCTCC | inactive: -0.0473
19 | GGTTCTAC | inactive: -0.0807
20 | CTCTATCC | inactive: -0.0726
21 | CATGCTAG | inactive: 0.255
22 | ATACCACC | inactive: 0.091
23 | CATATGTC | inactive: 0.277
24 | ATAAGATG | inactive: 0.0984
25 | GCGGAGCC | inactive: -0.36

Row | Sequence | PBM E-score
26 | GTATTAGA | inactive: 0.178
27 | TGCAACAA | inactive: 0.256
28 | GGCTCACC | inactive: -0.239
29 | ATCGGGCA | inactive: -0.0328
30 | AGCCAGGA | inactive: -0.114
31 | ACATTCAT | ≥ 0.232
32 | CGGTGGTC | inactive: -0.0872
33 | CACTCTAC | inactive: 0.101
34 | ACCAGCAG | inactive: -0.089
35 | GTAGACAC | inactive: 0.194
36 | CAAGAGCG | inactive: -0.077
37 | ACCGATGC | inactive: -0.129
38 | CCTGGGGA | inactive: -0.191
39 | ATGACTAA | inactive: 0.048
40 | GAATGCGC | inactive: -0.0752
41 | CGGTGTGA | inactive: 0.0901
42 | GCCAAAGA | inactive: -0.105
43 | GTGAAGCA | inactive: -0.0135
44 | ATTGCCAA | inactive: 0.0166
45 | AGAGCGGC | inactive: -0.216
46 | ATATGATC | inactive: 0.134
47 | CATAGGGC | inactive: -0.137
48 | GACGGGTA | inactive: -0.0427
49 | ACAGGCAA | ≥ 0.161
50 | CATTCAGG | inactive: -0.0759

Row | Sequence | PBM E-score
51 | AATGTGGA | inactive: 0.137
52 | CCACCAAA | inactive: -0.0968
53 | AGTGAAGG | inactive: -0.043
54 | ACCAAGAT | inactive: 0.0682
55 | ACCGTATG | inactive: 0.0477
56 | CTTGCTAA | inactive: -0.0122
57 | ACTCGGCG | inactive: -0.14
58 | CCCATTAC | inactive: 0.00704
59 | GGGCCGAC | inactive: -0.17
60 | GCTGCTAC | inactive: -0.0513
61 | GATACTGA | inactive: 0.0362
62 | CGTTTACA | inactive: 0.199
63 | CCATCTAG | inactive: -0.0593
64 | CCATTCAC | inactive: -0.0712
65 | AAAACCCT | inactive: -0.0223
66 | CCGGGGCA | inactive: -0.23
67 | CTTCCGTC | inactive: -0.14
68 | CATGAGAA | inactive: 0.0961
69 | CCTGGGTA | inactive: -0.102
70 | CCATGGGA | inactive: -0.0326
71 | AGCCCCAT | inactive: -0.196
72 | CAGGGACC | inactive: -0.189
73 | CGTCGTTC | inactive: 0.0474
74 | ACCAACCA | inactive: 0.0424
75 | ATCGAAGC | inactive: -0.0734

Row | Sequence | PBM E-score
76 | ACAGGGAT | inactive: 0.117
77 | GCTGAGCC | inactive: -0.132
78 | AGAAAATG | inactive: 0.115
79 | AAGAAAGG | inactive: -0.00432
80 | AGCTTCAG | inactive: -0.111
81 | CATGCGAG | inactive: -0.0623
82 | ACATAACT | inactive: 0.291
83 | GGTTGACA | inactive: 0.231
84 | CACACCGA | inactive: 0.0554
85 | CAGGTAAA | inactive: 0.162
86 | GAAGCGGA | inactive: -0.156
87 | AGGACTAT | inactive: 0.00671
88 | GAGCAAAC | inactive: 0.0255
89 | CTATCTTC | inactive: 0.0312
90 | GCAAACGA | inactive: 0.0896
91 | ACGCGAGA | ≥ 0.00992
92 | CATCACAG | inactive: 0.0918
93 | CCCCTAAC | inactive: -0.234
94 | CCCGGCGA | inactive: -0.145
95 | CTGCATGA | inactive: -0.0538
96 | AACGACGT | inactive: 0.0851
97 | CACGAAGG | inactive: -0.0932
98 | ATGACCAT | inactive: 0.135
99 | AACGCCAT | inactive: -0.0153
100 | CCAACGCG | inactive: -0.0949

Row | Sequence | PBM E-score
101 | CGCCCGGC | inactive: -0.27
102 | AGGGCGTG | inactive: -0.103
103 | CCCTCGTA | inactive: -0.00203
104 | CATTGACA | inactive: 0.217
105 | AGTATATG | inactive: 0.104
106 | GGAACCGA | inactive: -0.0398
107 | ATATAGTC | inactive: 0.111
108 | ACCACTGA | inactive: -0.0338
109 | CGTGTATC | inactive: 0.258
110 | CCCCCTAC | inactive: -0.23
111 | CCAATGAA | inactive: -0.121
112 | ACACCCGA | inactive: -0.00452
113 | ATGAAATC | ≥ 0.139
114 | GGAGTACC | inactive: -0.0959
115 | AAGATTCC | inactive: 0.00071
116 | GCTGAACC | inactive: -0.121
117 | TACGTTGA | inactive: 0.145
118 | CGCTCTCA | inactive: -0.168
119 | AATAGGAT | ≥ 0.122
120 | GGAATTAC | inactive: 0.103
121 | CCGTAATA | inactive: 0.0533
122 | CGAGGCAC | inactive: -0.171
123 | CTCGTTTC | inactive: 0.0187
124 | CGAGAGAA | inactive: -0.102
125 | AAGACAGC | inactive: -0.0428

Row | Sequence | PBM E-score
126 | ATTCACCC | inactive: -0.106
127 | ATTTTAAC | inactive: 0.0613
128 | TCCCGGAA | inactive: -0.0856
129 | AGCTTCAA | inactive: -0.0251
130 | TAGTGTCA | inactive: 0.182
131 | AGAATCCT | inactive: -0.0519
132 | CCCTTCGA | inactive: -0.172
133 | GAAATCGA | inactive: -0.0636
134 | TGTTCGAA | inactive: 0.235
135 | AACATGAA | active: 0.387
136 | ACTCGTTG | inactive: 0.0789
137 | GTGGGGTA | inactive: -0.109
138 | GAGGTTGC | inactive: -0.184
139 | AGAACTCC | inactive: -0.077
140 | ACTCTGTA | inactive: 0.0791
141 | AAAGTAGC | inactive: -0.0164
142 | AAGCAATC | ≥ 0.132
143 | CATGGAAG | inactive: 0.0886
144 | ATTACATG | active: 0.447
145 | ATGACGGG | inactive: -0.0853
146 | TACAGTAA | inactive: 0.238
147 | CTTATGAA | inactive: -0.00095
148 | CGTTATCA | inactive: 0.0918
149 | AACCCCCT | inactive: -0.113
150 | ATAGGTTC | inactive: 0.027

Row | Sequence | PBM E-score
151 | GTTCGAAA | inactive: 0.0496
152 | AAGTTTTA | inactive: 0.0992
153 | CCGCCATA | inactive: -0.0109
154 | GCACACCA | inactive: -0.0961
155 | ATTCTTCC | inactive: -0.0716
156 | CCCACTCC | inactive: -0.204
157 | AAGCCACA | inactive: -0.0703
158 | CATCTCCG | inactive: -0.0463
159 | TCGCGTCA | inactive: 0.0288
160 | GTCCATTA | inactive: 0.13
161 | CCCGGAGC | inactive: -0.204
162 | GCACTATA | inactive: 0.0436
163 | AACGACCC | inactive: -0.213
164 | ATGTCTGC | inactive: 0.1
165 | AACAGGTC | inactive: 0.149
166 | TGACAGAA | inactive: 0.143
167 | ATGAAAAC | inactive: 0.131
168 | ACTACACA | active: ≥ 0.357
169 | CAGATGGA | inactive: 0.0599
170 | CGCGATAA | inactive: 0.0188
171 | ATGCATTG | inactive: 0.136
172 | AGGGGCCG | inactive: -0.338
173 | CTCCTAAG | inactive: -0.0752
174 | GGGTGATA | inactive: 0.00682
175 | CACAGACA | inactive: 0.161

Row | Sequence | PBM E-score
176 | CCGATAAA | inactive: 0.0677
177 | GACCATCC | inactive: -0.0648
178 | AAACCTCT | inactive: -0.0627
179 | CGAGGTCC | inactive: -0.201
180 | ATTCCATG | inactive: 0.123
181 | ATTACGCA | inactive: 0.0765
182 | CTATGCCC | inactive: -0.184
183 | AAACTGGG | inactive: -0.152
184 | AGAGTTCC | inactive: -0.111
185 | ACCTTGTC | inactive: 0.306
186 | AGAGTCCG | inactive: -0.106
187 | ACTCCGTG | inactive: -0.0339
188 | GATATACA | inactive: 0.263
189 | CCTTGGTA | inactive: 0.0171
190 | CATTGAGG | inactive: -0.00528
191 | CACGTCGA | inactive: 0.0163
192 | AGGTAGGC | inactive: -0.116
193 | AGCACTAA | inactive: -0.00029
194 | CTTTGGTC | inactive: -0.0812
195 | AACGCTAA | inactive: -0.0108
196 | CGGGATTC | inactive: 0.0153
197 | ATCCATGG | inactive: -0.0915
198 | CTAAATCC | inactive: -0.102
199 | GCTTGTAA | active: 0.384
200 | AGTTCTCC | inactive: -0.0986

Row | Sequence | PBM E-score
201 | CCTATAGA | inactive: -0.0341
202 | CCCCGAAG | inactive: -0.219
203 | AAGCTGAT | inactive: 0.0735
204 | GAGATCAA | inactive: 0.0168
205 | CTCACAAG | inactive: 0.0655
206 | CGTATATA | inactive: 0.148
207 | CCGGGACC | inactive: -0.275
208 | AAGACCAT | inactive: -0.00667
209 | GAAGGGAC | inactive: -0.136
210 | ATGTTTCA | inactive: 0.243
211 | GACAGGTA | inactive: 0.183
212 | AGGGAGAG | inactive: -0.181
213 | GGATCGCC | inactive: -0.201
214 | AAAGACGA | ≥ 0.0966
215 | GGATCAAA | inactive: 0.0394
216 | AATTTTCG | inactive: 0.012
217 | AGGACAAG | inactive: 0.254
218 | GGCTACAC | inactive: 0.125
219 | ACAAGTAC | active: 0.35
220 | CACAGCAC | inactive: 0.0363
221 | AAAGTGTG | inactive: 0.119
222 | AAAACTCC | inactive: -0.138
223 | CCAACACC | inactive: -0.034
